Experimental data: article PMC3751744
No constants are given. Whether binding was seen depends on the method and setting. Binding seen in cells or lysates may run through a third protein. Tags and fused reporters may be left off the sequences shown.

Sequences of proteins named here, by UniProt entry; tags and fusion partners are left off.
UniProt P49789: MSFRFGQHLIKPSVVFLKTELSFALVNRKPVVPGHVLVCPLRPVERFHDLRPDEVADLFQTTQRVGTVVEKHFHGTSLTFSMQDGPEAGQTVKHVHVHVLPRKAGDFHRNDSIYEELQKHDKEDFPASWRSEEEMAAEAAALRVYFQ

Target: Flag-Fhit (human) (UniProt P49789)
Assay: co-IP; HEK293 cells co-transfected, cross-linked with 0.5 mM DSP, lysed in RIPA buffer; lysates with anti-Flag affinity agarose gel at 4°C for 4 h; Western blot; Src, HA-Gγ2 or untagged Fhit co-expressed in some samples

Binder	binding
HA-RGS19 (protein, UniProt P49795 1-217) MPTPHEAEKQITGPEEADRPPSMSSHDTASPAAPSRNPCCLCWCCCCSCSWNQERRRAWQASRESKLQPLPSCEVCATPSPEEVQSWAQSFDKLMHSPAGRSVFRAFLRTEYSEENMLFWLACEELKAEANQHVVDEKARLIYEDYVSILSPKEVSLDSRVREGINKKMQEPSAHTFDDAQLQIYTLMHRDSYPRFLSSPTYRALLLQGPSQSSSEA	no binding
HA-RGS16 (protein, UniProt O15492 1-202) MCRTLAAFPTTCLERAKEFKTRLGIFLHKSELGCDTGSTGKFEWGSKHSKENRNFSEDVLGWRESFDLLLSSKNGVAAFHAFLKTEFSEENLEFWLACEEFKKIRSATKLASRAHQIFEEFICSEAPKEVNIDHETHELTRMNLQTATATCFDAAQGKTRTLMEKDSYPRFLKSPAYRDLAAQASAASATLSSCSLDEPSHT	no binding
